Experimental findings from US9242996B2 (Novartis AG, priority 2013, dated 2016) are described below.

A word on the IC50: it is the concentration that inhibits the measured activity by half. Low readings indicate inhibition by little substance, high ones a need for much substance.

Some entries of the source have several records that differ or are many. Only these are listed. There may be further records. Results that share an entry seem to repeat one measurement (runs, samples, wells or individuals).

The test deals with activated ERK2 (Homo sapiens (Human), UniProt P28482). Briefly: Activated ERK2 (20 pM) Kinase Assay (AlphaScreen, ERKtide phosphorylation). The test is classed as biochemical. The settings on record: 0.02 nM ERK2, 400 nM ERKtide peptide, 35 μM ATP, 30 min preincubation. On the procedure:
Activated ERK2 (20 pM) Kinase Assay:
The assay was carried out in 20 mM HEPES [pH 7.5], 5 mM MgCl2, 1 mM DTT, 0.01% Tween-20, 0.05% BSA using 0.02 nM ERK2, 400 nM ERKtide peptide and 35 μM ATP (all concentrations are final in the reaction) in a total volume of 10.25 μL. […] Compound dilution series were prepared in 100% DMSO. ERK2 was preincubated with compounds for 30 minutes at ambient temperature. Reaction was initiated by addition of a substrate cocktail of ERKtide peptide and ATP and was allowed to proceed for 4 hours at ambient temperature. Reaction was terminated by addition of 10 μL of a 2× stop buffer consisting of 100 mM Tris-Cl [pH 7.5], 25 mM EDTA, 0.01% Tween 20, 20 μg/mL of AlphaScreen Protein A Acceptor Beads, 20 μg/mL of Streptavidin Donor Beads (PerkinElmer, Waltham, Mass.), and 1:1000 dilution phospho-EGF Receptor (Thr669) antibody (Cat #8808, Cell Signaling Technology, Danvers, Mass.). Terminated reactions were read, after overnight incubation in the dark, on an EnVision Multilabel Plate Reader (PerkinElmer, Waltham, Mass.), with excitation and emission wavelengths set to 680 nm and 570 nm, respectively. IC50 values were determined using a four-parameter fit.
For orientation: In Alpha technology, singlet oxygen from a donor bead excites a nearby acceptor bead.

activated ERK2, sequence (P28482 whole entry): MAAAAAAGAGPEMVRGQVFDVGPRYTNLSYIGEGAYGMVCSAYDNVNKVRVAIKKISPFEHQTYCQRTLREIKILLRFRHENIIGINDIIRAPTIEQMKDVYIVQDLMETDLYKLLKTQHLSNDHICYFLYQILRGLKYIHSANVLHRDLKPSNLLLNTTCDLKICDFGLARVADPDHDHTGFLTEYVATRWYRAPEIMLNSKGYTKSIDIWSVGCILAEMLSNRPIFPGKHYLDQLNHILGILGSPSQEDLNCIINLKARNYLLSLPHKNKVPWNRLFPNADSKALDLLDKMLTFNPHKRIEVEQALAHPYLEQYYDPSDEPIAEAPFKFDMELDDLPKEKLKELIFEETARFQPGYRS

Regarding `NC[C@@H](NC(=O)c1ccc(-c2nc(C3CCC(F)(F)CC3)cnc2N)cc1F)c1cccc(Cl)c1` [Example 197, (S)—N-(2-amino-1-(3-chlorophenyl)ethyl)-4-(3-amino-6-(4,4-difluorocyclohexyl)pyrazin-2-yl)-2-fluorobenzamide], the half-maximal inhibitory concentration (IC50) was 0.751 nM and 0.04 nM [lines of one column].
